Source: the antibiotic and cytotoxicity screens of Wong et al. (2023)
The list shows a part of the results.

What follows are molecules tested on HSkMC (human skeletal muscle cells) (assay: cytotoxicity call (relative viability < 0.9)). Conditions: 10 µM.

| SMILES | cytotoxicity call |
| --- | --- |
| COCC(=O)N1CC(=O)N2[C@H](CO)[C@H](c3ccc(C#Cc4cccnc4)cc3)[C@@H]2C1 | inactive |
| C[C@H](CO)N1C[C@H](C)[C@@H](CN(C)Cc2ccc(-c3ccccc3)cc2)Oc2ccc(NC(=O)C3CCCCC3)cc2C1=O | inactive |
| C[C@@H]1CN([C@@H](C)CO)S(=O)(=O)c2ccc(C#CC3CC3)cc2O[C@H]1CN(C)C(=O)c1cccc(F)c1 | inactive |
| O=S(=O)(c1c[nH]c2ncccc12)N1CC(S(=O)(=O)N2CCOCC2)C1 | inactive |
| CN1CCN(C(=O)C[C@H]2CC[C@@H]3[C@H](COC[C@@H](O)CN3S(=O)(=O)c3cccc(Cl)c3)O2)CC1 | inactive |
| Cc1noc(C)c1NC(=O)N(C)C[C@H]1Oc2ccc(NS(=O)(=O)c3cccs3)cc2CC(=O)N([C@H](C)CO)C[C@@H]1C | inactive |
| C[C@@H]1CCCCO[C@H](CN(C)C(=O)NC2CCCCC2)[C@@H](C)CN([C@@H](C)CO)C(=O)c2cc(NC(=O)NC3CCCCC3)ccc2O1 | inactive |
| COc1cccc(C(=O)Nc2ccc3c(c2)C(=O)N(C)[C@H]2CC[C@H](CC(=O)NCCCN4CCOCC4)O[C@H]2CO3)c1 | inactive |
| CC(C)=CCc1c2c(c3occ(-c4ccc(O)cc4)c(=O)c3c1O)C=CC(C)(C)O2 | inactive |
| CC(C)NC(=O)N(C)C[C@@H]1Oc2ccc(NS(=O)(=O)c3ccc(F)cc3)cc2C(=O)N([C@H](C)CO)C[C@H]1C | inactive |
| CN1C(=O)COc2cc(N)ccc21 | inactive |
| Cc1noc(C)c1S(=O)(=O)Nc1ccc2c(c1)C(=O)N([C@H](C)CO)C[C@H](C)[C@@H](CN(C)Cc1ccc(-c3ccccc3)cc1)O2 | inactive |
| NCc1ccccc1-c1ccsc1 | inactive |
| COCC(=O)N(C)C[C@@H]1Oc2cc(C#CCN(C)C)ccc2S(=O)(=O)N([C@H](C)CO)C[C@@H]1C | inactive |
| CCCC[C@H](C)C[C@H](O)/C=C/[C@H]1[C@H](O)CC(=O)[C@@H]1CCCC/C=C/C(=O)O | inactive |
| C[C@H](CO)N1C[C@H](C)[C@@H](CN(C)C(=O)Cc2ccccc2)OCCCC[C@H](C)Oc2ccc(NC(=O)Nc3ccc4c(c3)OCO4)cc2C1=O | inactive |
| Cc1nn(C)cc1NC(=O)C[C@@H]1CC[C@@H]2[C@H](COc3ccc(NC(=O)C4CCOCC4)cc3C(=O)N2C)O1 | inactive |
| Cc1noc(C)c1NC(=O)N(C)C[C@H]1Oc2ccc(NC(=O)Nc3ccc(C(F)(F)F)cc3)cc2CC(=O)N([C@@H](C)CO)C[C@H]1C | inactive |
| COc1ccccc1S(=O)(=O)N[C@@H]1C=C[C@H](CC(=O)N2CCOCC2)O[C@@H]1CO | inactive |
| COc1ccc(S(=O)(=O)Nc2ccc3c(c2)C(=O)N([C@H](C)CO)C[C@H](C)[C@H](CN(C)S(=O)(=O)c2ccc(C)cc2)O3)cc1 | inactive |

| SMILES | cytotoxicity call |
| --- | --- |
| Cc1noc(C)c1S(=O)(=O)N(C)C[C@H]1Oc2ccc(NC(=O)Cn3cnnn3)cc2CC(=O)N([C@H](C)CO)C[C@H]1C | inactive |
| CC1=CC2C(C(C)C)CCC(C)(O)C2CC1 (stereo not given) | inactive |
| COC(=O)Cc1cccn1C | inactive |
| COc1ccc(-c2cccc(-c3ccc([C@H]4CC(=O)C[C@@H](c5ccccc5)C45C(=O)OC(C)(C)OC5=O)cc3)c2)cc1 | inactive |
| C[C@H]1CN([C@@H](C)CO)C(=O)Cc2cc(NC(=O)CCCCCC(=O)Nc3ccccc3N)ccc2O[C@@H]1CN(C)Cc1ccccc1 | inactive |
| C[C@H]1CN([C@@H](C)CO)C(=O)c2cc(C#CCN(C)C)cnc2O[C@@H]1CN(C)C(=O)c1ccc2c(c1)OCO2 | inactive |
| C[C@H](O)C#Cc1ccc2c(c1)O[C@@H](CN(C)C(=O)Nc1ccccc1)[C@H](C)CN([C@@H](C)CO)S2(=O)=O | inactive |
| COC(=O)[C@H](Cc1ccccc1)N1CC(/C=C/C2CC2)=C[C@@H]1[C@@H](O)CCn1cc(-c2ccc(C(=O)NO)s2)nn1 | inactive |
| C[C@@H]1CN([C@@H](C)CO)C(=O)c2cc(Br)cnc2O[C@@H]1CN(C)S(=O)(=O)c1ccc(F)cc1 | inactive |
| C[C@H]1CN([C@@H](C)CO)C(=O)c2cc(C#CCc3ccccc3)cnc2O[C@@H]1CN(C)C(=O)C1CCOCC1 | inactive |
| Cc1noc(C)c1S(=O)(=O)Nc1ccc2c(c1)C(=O)N([C@H](C)CO)C[C@H](C)[C@@H](CN(C)C(=O)Nc1ccccc1)OCCCC[C@@H](C)O2 | inactive |
| Cc1ccc(S(=O)(=O)Nc2ccc3c(c2)C(=O)N([C@H](C)CO)C[C@H](C)[C@H](CN(C)Cc2ccc(C(F)(F)F)cc2)OCCCC[C@H](C)O3)cc1 | active |
| Cc1noc(C)c1NC(=O)N(C)C[C@H]1Oc2c(NC(=O)Nc3ccc(C(F)(F)F)cc3)cccc2C(=O)N([C@@H](C)CO)C[C@@H]1C | inactive |
| COc1cccc(S(=O)(=O)N(C)C[C@@H]2Oc3cc(C#CCN(C)C)ccc3S(=O)(=O)N([C@@H](C)CO)C[C@H]2C)c1 | inactive |
| Cc1cc(C(=O)Nc2cccc3c2O[C@@H](CN(C)C(=O)Nc2c(C)noc2C)[C@@H](C)CN([C@H](C)CO)C3=O)n(C)n1 | inactive |
| C[C@@H]1CN([C@H](C)CO)C(=O)Cc2cc(NC(=O)Nc3cccc4ccccc34)ccc2O[C@@H]1CN(C)Cc1ccc(C(=O)O)cc1 | inactive |
| C[C@@H]1CN([C@H](C)CO)C(=O)c2cc(NS(=O)(=O)c3cccs3)ccc2O[C@@H](C)CCCCO[C@@H]1CN(C)Cc1ccc(Cl)c(Cl)c1 | inactive |
| Cn1c(=O)c2c(nc(S(C)(=O)=O)n2C)n(C)c1=O | inactive |
| C[C@H]1CN([C@@H](C)CO)S(=O)(=O)c2ccc(C#Cc3ccc(F)cc3)cc2O[C@H]1CN(C)S(C)(=O)=O | inactive |
| COc1ccc(CN(C)C[C@H]2Oc3ccc(NS(C)(=O)=O)cc3CC(=O)N([C@H](C)CO)C[C@H]2C)cc1 | inactive |
